Out of some 39,000 compounds screened, about 220 (0.56%) showed activity. Some of the results follow.
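Further: static incubation at 37 °C against the wild-type strain, values averaged over two biological replicates.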

For this assay, the system named is Escherichia coli K-12 BW25113. Kind of assay: relative growth (OD600 normalised to plate interquartile mean) (fraction); higher = less growth inhibition, active = 0.2 or less. The settings on record: 50 µM; LB; incubation time: overnight (16-24 h).
As for `C[C@@H]1CN([C@@H](C)CO)C(=O)c2cccc(NC(=O)Nc3ccc4c(c3)OCO4)c2O[C@@H]1CN(C)Cc1ccc(C(=O)Nc2ccccc2N)cc1`, the relative growth was inactive: 1. As for `C[C@@H]1CN([C@@H](C)CO)C(=O)c2cc(NS(=O)(=O)c3ccc(Cl)cc3)ccc2O[C@@H](C)CCCCO[C@H]1CN(C)Cc1ccncc1`, the figure is inactive: 1.01. For `CCCCOC(=O)c1ccc(N)cc1` the value was inactive: 1.01; for `C[C@@H]1CN([C@H](C)CO)C(=O)Cc2cc(NC(=O)Nc3ccc(C(F)(F)F)cc3)ccc2O[C@@H]1CN(C)C(=O)Nc1cccc2ccccc12`, inactive: 1. For the compound `CN1C(=O)c2cc(NC(=O)C3CCC3)ccc2OC[C@@H]2O[C@@H](CC(=O)NCCc3ccncc3)CC[C@@H]21`, the relative growth was inactive: 0.997.

In the case of `C[C@@H]1CN([C@@H](C)CO)C(=O)Cc2cc(NC(=O)Nc3ccc4c(c3)OCO4)ccc2O[C@H]1CN(C)C(=O)Nc1ccc(C(F)(F)F)cc1`, the relative growth was inactive: 0.974. As for `CCS(=O)(=O)N1C[C@]2(CN(C2)C(=O)c2ccc3c(c2)OCO3)c2c(n(c3cc(ccc23)OC)C)[C@H]1CO`, the figure is inactive: 1.01; as for `O=C(NC[C@@H](O)CO)[C@]1(CCS(=O)(=O)c2ccccc2)N=C(c2ccc(OCCCO)cc2)O[C@@H]1c1ccccc1`, inactive: 1.02.

As to `C[C@H](CO)N1C[C@H](C)[C@H](CN(C)Cc2ccc(C(=O)Nc3ccccc3N)cc2)Oc2ccc(NC(=O)Nc3ccc(F)cc3)cc2C1=O`, the relative growth is inactive: 0.997. For `COc1ccc(S(=O)(=O)Nc2cccc3c2O[C@@H](CN(C)Cc2ccc(Cl)c(Cl)c2)[C@H](C)CN([C@@H](C)CO)C3=O)cc1` the value was inactive: 0.993. For `C[C@H]1CN([C@@H](C)CO)C(=O)Cc2cc(NC(=O)CCC(F)(F)F)ccc2O[C@H]1CN(C)S(=O)(=O)c1ccccc1` the value was inactive: 0.991; for `COc1ccc([C@@H]([C@H](Cc2ccccc2)OC(C)=O)N2C[C@H]3C(=NO[C@@H]3[C@@H](OC(C)=O)c3ccccc3)[C@@H]2Cc2ccccc2)cc1`, inactive: 1.01. For `O=C(Nc1ccc(C(=O)O)c(O)c1)c1ccccc1` the value was inactive: 1.01; for `C[C@H]1CCCCO[C@H](CN(C)S(=O)(=O)c2ccc(Cl)cc2)[C@@H](C)CN([C@@H](C)CO)C(=O)c2cc(NS(=O)(=O)c3cccs3)ccc2O1`, inactive: 1.06; for `C[C@H](CO)N1C[C@H](C)[C@H](CN(C)Cc2ccccc2)OCCCC[C@H](C)Oc2ccc(NC(=O)NC3CCCCC3)cc2C1=O`, inactive: 0.993. As for `C[C@H](CO)N1C[C@H](C)[C@@H](CN(C)C(=O)Nc2ccc(F)cc2)OCCCC[C@H](C)Oc2ccc(NC(=O)c3ccncc3)cc2C1=O`, the relative growth is inactive: 0.979.

(Values after the supplement of paper PMC9446081.)
